Reference: PubChem BioAssay AID504339 (National Center for Advancing Translational Sciences (NCATS), 2011)
In all, about 390,000 compounds went through this assay and about 17,000 (4.4%) were called active. Inconclusive results, whose numbers are uncertain, are shown with a selection of clear calls. Calls follow the shape of the dose curve; as a rule, active = well fitted inhibition curve with a large enough effect; inconclusive = small, poorly fitted or top-dose-only effect; inactive = no such curve, though single readings can be large or run the other way. Potencies beside an inconclusive call are fits to weak or partial responses and may not hold up.
% is scaled to controls: 0 for no effect and ±100 for the full control effect; potency is read from the fitted curve at half-maximal effect; tags tell the direction and shape of the fitted curve.
Also: nearly all actives have a fitted effect of over 50% in size.

Each molecule was assayed against Lysine-specific demethylase 4A (Homo sapiens) (UniProt O75164) (assay: qHTS Assay for Inhibitors of JMJD2A-Tudor Domain). Conditions: AlphaScreen JMJD2A-Tudor / H3K4me3 peptide binding; activity change, negative = inhibition: at 114 µM (top of the series).
Chain of UniProt O75164 (O75164 whole entry, looked up, the tested form may be a part): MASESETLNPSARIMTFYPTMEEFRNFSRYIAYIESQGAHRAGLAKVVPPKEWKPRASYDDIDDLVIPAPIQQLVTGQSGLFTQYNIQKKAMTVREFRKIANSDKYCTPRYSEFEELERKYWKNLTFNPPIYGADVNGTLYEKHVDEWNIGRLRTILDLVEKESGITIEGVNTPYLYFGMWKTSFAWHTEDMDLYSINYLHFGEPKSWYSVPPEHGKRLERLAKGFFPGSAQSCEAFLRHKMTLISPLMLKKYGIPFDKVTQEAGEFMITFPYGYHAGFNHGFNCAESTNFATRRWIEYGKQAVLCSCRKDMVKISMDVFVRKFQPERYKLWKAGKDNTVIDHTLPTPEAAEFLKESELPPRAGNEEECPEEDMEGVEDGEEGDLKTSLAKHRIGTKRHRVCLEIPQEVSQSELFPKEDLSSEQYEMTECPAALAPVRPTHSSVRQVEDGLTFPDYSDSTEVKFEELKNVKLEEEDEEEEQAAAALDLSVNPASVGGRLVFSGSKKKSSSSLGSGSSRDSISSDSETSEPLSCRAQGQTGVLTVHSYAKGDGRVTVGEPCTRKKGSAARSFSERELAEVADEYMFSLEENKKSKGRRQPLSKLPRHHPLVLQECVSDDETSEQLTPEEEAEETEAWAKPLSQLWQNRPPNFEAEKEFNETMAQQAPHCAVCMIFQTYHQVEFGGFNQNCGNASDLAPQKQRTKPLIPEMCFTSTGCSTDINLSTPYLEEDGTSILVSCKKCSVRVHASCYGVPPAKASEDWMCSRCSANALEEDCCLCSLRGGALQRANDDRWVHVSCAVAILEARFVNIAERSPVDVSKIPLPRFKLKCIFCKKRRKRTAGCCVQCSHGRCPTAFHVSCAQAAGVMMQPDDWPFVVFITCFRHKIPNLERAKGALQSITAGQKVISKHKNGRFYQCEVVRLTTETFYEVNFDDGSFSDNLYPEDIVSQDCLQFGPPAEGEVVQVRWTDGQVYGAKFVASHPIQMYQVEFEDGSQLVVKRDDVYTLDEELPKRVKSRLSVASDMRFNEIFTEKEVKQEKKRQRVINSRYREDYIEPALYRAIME
`CCn1c(CSc2n[nH]c(N)n2)nc2cc(C(=O)O)ccc21` was tested, and the Potency was inconclusive: 31.6 µM [inhibitor, partial curve]. `Nc1c2c(nc3ccc(Br)cc13)N(c1ccccc1)CC2` was tested, and the Potency was active: 10 µM. In the case of `COCCNC(=O)CN1C(=O)NC(c2ccccc2)(c2ccccc2)C1=O`, the Potency was inconclusive: 89.1 µM [inhibitor, single point]. `CC(C)(C)C1CCc2[nH]nc(C(=O)O)c2C1` (stereo not given) was tested, and the Potency was inconclusive: 20 µM [inhibitor, full curve]. For `COCc1cc(C)nc(SCC(=O)Nc2ccccc2C)c1C#N`, the activity change, negative = inhibition was inactive: -28.2% [at 11.4 µM]. `O=[N+]([O-])c1ccc(N2CCCCC2)c(Cl)c1N1CCCCC1` was tested, and the Potency was inconclusive: 44.7 µM [inhibitor, partial curve]. For `COc1cccc(-c2nc(N3CCN(Cc4ccccc4)CC3)c3ccccc3n2)c1O`, the Potency was inconclusive: 17.8 µM [inhibitor, full curve]. For `COC(=O)c1ccc(NC(=O)c2cc3cc(C)ccc3n2C)cc1`, the Potency was “inactive”. In the case of `COc1ccccc1CN(C)C(=O)c1cccc(S(=O)(=O)N2CCN(Cc3ccccc3)CC2)c1`, the Potency was inconclusive: 56.2 µM [inhibitor, partial curve]. For `Cc1cc(Nc2ccc(F)cc2)n2nc(C)nc2n1`, the Potency was “inactive”. With `O=C(COC(=O)c1cc([N+](=O)[O-])ccc1N1CCOCC1)c1ccc(Br)cc1` the Potency was inconclusive: 3.55 µM [inhibitor, full curve, poor fit]. With `CCc1cc2c(cc3c(=O)n(CC(=O)NCc4cccc(Cl)c4)nc(CC)n32)s1` the Potency was “inactive”. `CCOC(=O)c1c(NC(=O)CSc2nnnn2-c2ccc(OC)cc2)sc(C)c1C` was tested, and the Potency was active: 50.1 µM. With `CCC(C)(C)NC(=O)CN(C(=O)c1csnn1)c1ccccc1-c1ccccc1` the Potency was inconclusive: 50.1 µM [inhibitor, partial curve]. `CC1CC(C)CN(C(=O)c2ccc3c(c2NCCO)C(=O)c2ccccc2C3=O)C1` (stereo not given) was tested, and the Potency was active: 14.1 µM. `COc1ccc(Nc2cc(C(=O)NCCCN(C)Cc3ccccc3)c3ccccc3n2)cc1OC` was tested, and the Potency was inconclusive: 39.8 µM [inhibitor, partial curve]. In the case of `CN(C)c1ccc(C2/C(=C(/O)c3ccc(Br)cc3)C(=O)C(=O)N2C)cc1` (stereo not given), the Potency was inconclusive: 89.1 µM [inhibitor, single point]. For `C1=C(CCNc2nnnn2-c2ccccc2)CCCC1`, the Potency was active: 50.1 µM. In the case of `CCC(C)C(=O)Nc1nc(C)c(-c2csc(Nc3ccccc3OC)n2)s1` (stereo not given), the Potency was inconclusive: 56.2 µM [inhibitor, partial curve, poor fit]. In the case of `CCOc1ccc(OCC)c(NS(=O)(=O)c2cccc3nsnc23)c1`, the Potency was inconclusive: 35.5 µM [inhibitor, partial curve]. `O=C(NN=CC=Cc1ccccc1)C(O)C(O)C(=O)NN=CC=Cc1ccccc1` (stereo not given) was tested, and the Potency was inconclusive: 35.5 µM [inhibitor, full curve, poor fit]. In the case of `Cc1cc(C)c2c(=O)n(CC(=O)Nc3ccc(Cl)cc3)sc2n1`, the Potency was active: 1.12 µM. `COc1cc(CN2CCC(C(N)=O)CC2)ccc1OCc1ccccc1` was tested, and the Potency was active: 50.1 µM. For `CCc1ccc(NC(=O)N2CC=C(c3c[nH]c4ccccc34)CC2)cc1`, the Potency was inconclusive: 39.8 µM [inhibitor, partial curve]. With `Cc1ccc(-c2csc(NC(=O)CSC3=NCCS3)n2)cc1` the Potency was “inactive”. For `CCN(CC)c1ccc(NC(=O)CCS(=O)(=O)c2cccc3nsnc23)c(C)c1`, the Potency was active: 56.2 µM. In the case of `Cn1c(-c2ccc(F)cc2)cnc1SCC(=O)NCc1ccco1`, the Potency was inconclusive: 50.1 µM [inhibitor, partial curve]. In the case of `CCOC(=O)C1=NN(c2ccc(C)cc2)C2(S1)SC(C(C)=O)=C(C)N2c1ccccc1` (stereo not given), the Potency was inconclusive: 7.94 µM [inhibitor, full curve]. With `Fc1ccccc1/C=N/Nc1ncnc2ccccc12` the Potency was inconclusive: 63.1 µM [inhibitor, partial curve, poor fit]. `Cn1c(=O)[nH]c(=O)c2[nH]c(CN3CCN(Cc4ccccc4)CC3)nc21` was tested, and the Potency was “inactive”. With `CCOC(=O)c1cnn2c(N)c(C#N)nnc12` the Potency was inconclusive: 89.1 µM [inhibitor, single point]. With `Cc1ccc(S(=O)(=O)N2CCN(Cc3ccccc3C(F)(F)F)CC2)cc1` the Potency was inconclusive: 1.41 µM [inhibitor, full curve, poor fit]. In the case of `CCc1ccc(S(=O)(=O)/N=C2\C=C(Nc3ccc(O)cc3)C(=O)c3ccccc32)cc1`, the Potency was active: 7.08 µM. In the case of `O/N=C/c1ccccc1Oc1ccc(Cl)cc1`, the Potency was inconclusive: 20 µM [inhibitor, full curve]. For `C(=NN=C(NN=Cc1cccs1)NN=Cc1cccs1)c1cccs1`, the Potency was inconclusive: 39.8 µM [inhibitor, partial curve]. In the case of `O=C1OC(c2ccccc2)=C/C1=C\N1CCOCC1`, the Potency was inconclusive: 63.1 µM [inhibitor, partial curve, poor fit]. In the case of `CC1CCCC/C1=N\NC(=S)NCCc1ccccc1` (stereo not given), the Potency was inconclusive: 70.8 µM [inhibitor, partial curve]. In the case of `O=S(=O)(NCC(c1ccco1)N1CCN(c2ccc(F)cc2)CC1)c1ccc2c(c1)OCCO2` (stereo not given), the Potency was inconclusive: 14.1 µM [inhibitor, full curve, poor fit]. `Cc1cccc2c(N=NC(=O)c3ccc(NS(=O)(=O)c4cccs4)cc3)c(O)[nH]c12` was tested, and the Potency was inconclusive: 1.78 µM [inhibitor, full curve, poor fit]. With `COc1ccc(OC)c(/C=C/C(=O)N2CCCc3ccccc32)c1` the Potency was inconclusive: 50.1 µM [inhibitor, partial curve]. `Cc1ccc2c(c1)c1c(n2C)-c2[nH]ncc2CC1` was tested, and the Potency was inconclusive: 56.2 µM [inhibitor, partial curve]. `CC1CCCN(c2ccc(C(=O)NCc3ccc4c(c3)OCO4)cc2[N+](=O)[O-])C1` (stereo not given) was tested, and the Potency was inconclusive: 15.8 µM [inhibitor, partial curve]. In the case of `COC(=O)c1c(SC)nc2ccccc2c1OCc1cccc(C)c1`, the Potency was “inactive”. In the case of `Cc1ccc(Cn2c(C(C)Nc3nc(-c4ccc(Cl)cc4)cs3)nc3cc(C(=O)NCCCO)ccc32)cc1` (stereo not given), the Potency was active: 79.4 µM. For `Cc1ccc(N(C)C(=O)Cn2nc(Cc3ccncc3)c3ccccc3c2=O)cc1C`, the Potency was “inactive”. `O=C1C2C3C=CC(CNS(=O)(=O)c4ccccc4[N+](=O)[O-])(O3)C2C(=O)N1c1ccccc1` (stereo not given) was tested, and the Potency was inconclusive: 35.5 µM [inhibitor, partial curve]. For `S=c1ncc2[nH]c(=S)[nH]c2[nH]1`, the Potency was active: 11.2 µM. `CCO/C=C1/C(=O)N(c2ccc(OC)cc2)C(=O)c2ccccc21` was tested, and the Potency was “inactive”. For `CCN(CC)c1ccc(C(=O)OCC(=O)N2CCN(c3ccccc3)CC2)cc1`, the Potency was active: 4.47 µM. For `C=C[C@]1(C)C=C2CCC3[C@](C)(CCC[C@@]3(C)C(=O)O)C2CC1` (stereo not given in full), the Potency was inconclusive: 79.4 µM [inhibitor, single point]. For `O=C(CN1C2CCC1CC(NC(=O)NC1CCCCC1)C2)NC1CC1` (stereo not given), the Potency was “inactive”. For `Cc1ccc(/C(O)=C2\C(=O)C(=O)N(CC(C)O)C2c2cccc(F)c2)cc1` (stereo not given), the Potency was inconclusive: 89.1 µM [inhibitor, single point]. `CC1CCN(CCCNC(=O)c2ccc3c(=O)n(Cc4ccc(Cl)cc4)c(=S)[nH]c3c2)CC1` was tested, and the Potency was inconclusive: 20 µM [inhibitor, full curve]. With `Cc1cc(Nc2ccccc2)n(C(=O)c2ccc(N)cc2)n1` the Potency was inconclusive: 50.1 µM [inhibitor, partial curve]. `Cc1ccc(S(=O)(=O)N2CCC(C(=O)NNC(=O)c3ccc(F)cc3)CC2)cc1` was tested, and the Potency was inconclusive: 79.4 µM [inhibitor, partial curve]. In the case of `COc1ccc(NC(=O)CS(=O)(=O)c2cccc(Cl)c2)cc1`, the Potency was inconclusive: 14.1 µM [inhibitor, full curve, poor fit]. For `CC(C)(C)OC(=O)NNc1c2ccccc2nc2ccccc12`, the Potency was inconclusive: 39.8 µM [inhibitor, full curve, poor fit]. With `COc1cccc(CNC(=O)C2CCC(CNS(=O)(=O)c3cccs3)CC2)c1` (stereo not given) the Potency was inconclusive: 15.8 µM [inhibitor, full curve]. `CCCN(Cc1ccccc1)C(=S)Nc1ccc(SC(F)F)cc1` was tested, and the Potency was “inactive”. For `CCc1nnc(NS(=O)(=O)c2ccc(NC(=S)NC(=O)/C=C/c3ccc(F)cc3)cc2)s1`, the Potency was active: 56.2 µM. For `Cc1ccc(N2CC(C(=O)OCC(=O)Nc3ccc(F)cc3F)CC2=O)cc1` (stereo not given), the Potency was “inactive”. `CC(Cl)OC(=O)Nc1cccc2cccnc12` (stereo not given) was tested, and the Potency was inconclusive: 11.2 µM [inhibitor, full curve]. `Nc1nc2[nH]c(=S)[nH]c2c(=O)[nH]1` was tested, and the Potency was inconclusive: 31.6 µM [inhibitor, single point]. `Cn1c(CCNC(=O)c2cccs2)n[nH]c1=S` was tested, and the Potency was active: 17.8 µM. With `C/C(=C\C(=S)Nc1ccccc1)Nc1cccc2ccccc12` the Potency was inconclusive: 44.7 µM [inhibitor, partial curve]. With `CCCCn1cnc2cc(NC(=O)c3cc(OC)c(OC)c(OC)c3)ccc21` the Potency was “inactive”. `Cc1cc(N2CCC(C)CC2)nc2cccc(O)c12` was tested, and the Potency was inconclusive: 56.2 µM [inhibitor, partial curve, poor fit]. With `COc1ccc(-c2csc(C3=C(O)CN(C(C)C)C3=N)n2)cc1OC` the Potency was inconclusive: 89.1 µM [inhibitor, partial curve, poor fit]. In the case of `COc1ccccc1-c1nnc(SC/C(O)=C(\C#N)c2nc3ccccc3[nH]2)n1C1CCCCC1`, the Potency was active: 89.1 µM. `COc1ccc(/C=C(\NC(=O)c2ccccc2)C(=O)NC2CCCCC2)cc1` was tested, and the Potency was “inactive”.
